Measured values reported in the supplement of paper PMC8728848.
This is one part of the list.

What was measured:
Experiment in all cases: glycan array binding signal (z-score within array); higher = stronger binding
Settings in all cases: glycan notation: IUPAC condensed, linker removed
[1] = molecular target: Gal(b1-4)Glc
Method in brief: (§1)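 Glycan array data were curated from 3228 arrays in the Consortium for Functional Glycomics database and kept only where the protein sequence was available. Glycan names were converted to IUPAC-condensed notation, and columns mapping to the same glycan were averaged. The binding signal is a within-array Z-score, averaged across arrays of the same protein sequence at different concentrations or buffers and across linkers. Negative Z-scores can be read as non-binding.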

[2] = molecular target: Gal(b1-4)Glc6S
Method in brief: as §1

[3] = molecular target: Gal(b1-4)GlcNAc
Method in brief: as §1

[4] = molecular target: Gal(b1-4)GlcNAc(a1-6)Gal(b1-4)GlcNAc
Method in brief: as §1

[5] = molecular target: Gal(b1-4)GlcNAc(b1-2)Man
Method in brief: as §1

[6] = molecular target: Gal(b1-4)GlcNAc(b1-2)Man(a1-3)Man(b1-4)GlcNAc(b1-4)GlcNAc
Method in brief: as §1

[7] = molecular target: Gal(b1-4)GlcNAc(b1-2)Man(a1-3)[Gal(b1-4)GlcNAc(b1-2)Man(a1-6)]Man(b1-4)GlcNAc(b1-4)GlcNAc
Method in brief: as §1

[8] = molecular target: Gal(b1-4)GlcNAc(b1-2)Man(a1-3)[Gal(b1-4)GlcNAc(b1-2)Man(a1-6)]Man(b1-4)GlcNAc(b1-4)[Fuc(a1-6)]GlcNAc
Method in brief: as §1

[9] = molecular target: Gal(b1-4)GlcNAc(b1-2)Man(a1-3)[Gal(b1-4)GlcNAc(b1-2)Man(a1-6)][Gal(b1-4)GlcNAc(b1-4)]Man(b1-4)GlcNAc(b1-4)[Fuc(a1-6)]GlcNAc
Method in brief: as §1

[10] = molecular target: Gal(b1-4)GlcNAc(b1-2)Man(a1-3)[Gal(b1-4)GlcNAc(b1-2)Man(a1-6)][GlcNAc(b1-4)]Man(b1-4)GlcNAc(b1-4)[Fuc(a1-6)]GlcNAc
Method in brief: as §1

[11] = molecular target: Gal(b1-4)GlcNAc(b1-2)Man(a1-3)[GlcNAc(b1-2)Man(a1-6)]Man(b1-4)GlcNAc(b1-4)GlcNAc
Method in brief: as §1

[12] = molecular target: Gal(b1-4)GlcNAc(b1-2)Man(a1-3)[GlcNAc(b1-4)][Gal(b1-4)GlcNAc(b1-2)Man(a1-6)]Man(b1-4)GlcNAc(b1-4)GlcNAc
Method in brief: as §1

[13] = molecular target: Gal(b1-4)GlcNAc(b1-2)Man(a1-3)[Man(a1-6)]Man(b1-4)GlcNAc(b1-4)GlcNAc
Method in brief: as §1

[14] = molecular target: Gal(b1-4)GlcNAc(b1-2)Man(a1-6)Man(b1-4)GlcNAc(b1-4)GlcNAc
Method in brief: as §1

[15] = molecular target: Gal(b1-4)GlcNAc(b1-2)Man(a1-6)[GlcNAc(b1-2)Man(a1-3)]Man(b1-4)GlcNAc(b1-4)GlcNAc
Method in brief: as §1

[16] = molecular target: Gal(b1-4)GlcNAc(b1-2)Man(a1-6)[Man(a1-3)]Man(b1-4)GlcNAc(b1-4)GlcNAc
Method in brief: as §1

[17] = molecular target: Gal(b1-4)GlcNAc(b1-2)[Gal(b1-4)GlcNAc(b1-4)]Man(a1-3)[Gal(b1-4)GlcNAc(b1-2)Man(a1-6)]Man(b1-4)GlcNAc(b1-4)GlcNAc
Method in brief: as §1

[18] = molecular target: Gal(b1-4)GlcNAc(b1-2)[Gal(b1-4)GlcNAc(b1-4)]Man(a1-3)[Gal(b1-4)GlcNAc(b1-2)[Gal(b1-4)GlcNAc(b1-6)]Man(a1-6)]Man(b1-4)GlcNAc(b1-4)GlcNAc
Method in brief: as §1

[19] = molecular target: Gal(b1-4)GlcNAc(b1-2)[Gal(b1-4)GlcNAc(b1-4)]Man(a1-3)[GlcNAc(b1-4)][Gal(b1-4)GlcNAc(b1-2)Man(a1-6)]Man(b1-4)GlcNAc(b1-4)GlcNAc
Method in brief: as §1

[20] = molecular target: Gal(b1-4)GlcNAc(b1-2)[Gal(b1-4)GlcNAc(b1-4)]Man(a1-3)[GlcNAc(b1-4)][Gal(b1-4)GlcNAc(b1-2)[Gal(b1-4)GlcNAc(b1-6)]Man(a1-6)]Man(b1-4)GlcNAc(b1-4)GlcNAc
Method in brief: as §1

[21] = molecular target: Gal(b1-4)GlcNAc(b1-2)[Gal(b1-4)GlcNAc(b1-6)]Man(a1-6)[Gal(b1-4)GlcNAc(b1-2)Man(a1-3)]Man(b1-4)GlcNAc(b1-4)GlcNAc
Method in brief: as §1

[22] = molecular target: Gal(b1-4)GlcNAc(b1-2)[Gal(b1-4)GlcNAc(b1-6)]Man(a1-6)[Gal(b1-4)GlcNAc(b1-2)Man(a1-3)]Man(b1-4)GlcNAc(b1-4)[Fuc(a1-6)]GlcNAc
Method in brief: as §1

B1: RBMC1 (Vibrio cholerae) (protein)
chain: QQSQRVVTADNLMYLRSGFAIDAIGTTVNNLVGGPVQGTNGGVLRAPIALDQLQSVEVTSGLYNWGGYHIVAIKFTMKDGSSVLLGSTHYASNKKVETYTVPQGKRIKQINVWTGGWLVEGFQFVY
glycan array binding signal (z-score) [1]: -0.301
glycan array binding signal (z-score) [2]: -0.229
glycan array binding signal (z-score) [3]: -0.334
glycan array binding signal (z-score) [4]: -0.36
glycan array binding signal (z-score) [5]: -0.189
glycan array binding signal (z-score) [6]: -0.354
glycan array binding signal (z-score) [7]: 0.571
glycan array binding signal (z-score) [8]: 1.02
glycan array binding signal (z-score) [9]: -0.123
glycan array binding signal (z-score) [10]: -0.324
glycan array binding signal (z-score) [11]: 1.72
glycan array binding signal (z-score) [12]: -0.137
glycan array binding signal (z-score) [13]: 0.105
glycan array binding signal (z-score) [14]: -0.18
glycan array binding signal (z-score) [15]: 1.1
glycan array binding signal (z-score) [16]: -0.205
glycan array binding signal (z-score) [17]: -0.14
glycan array binding signal (z-score) [18]: 1.06
glycan array binding signal (z-score) [19]: -0.268
glycan array binding signal (z-score) [20]: -0.317
glycan array binding signal (z-score) [21]: 0.846
glycan array binding signal (z-score) [22]: 0.282
